The least precise scores are not listed. The source holds two more conditions with little spread; they are left out. Read del as a deletion of the residues named and ins as an insertion between two positions. For some assays here: How much ogerin was present is not stated here.
B1: GPR68, Q15743 (parent)
chain: MGNITADNSSMSCTIDHTIHQTLAPVVYVTVLVVGFPANCLSLYFGYLQIKARNELGVYLCNLTVADLFYICSLPFWLQYVLQHDNWSHGDLSCQVCGILLYENIYISVGFLCCISVDRYLAVAHPFRFHQFRTLKAAVGVSVVIWAKELLTSIYFLMHEEVIEDENQHRVCFEHYPIQAWQRAINYYRFLVGFLFPICLLLASYQGILRAVRRSHGTQKSRKDQIQRLVLSTVVIFLACFLPYHVLLLVRSVWEASCDFAKGVFNAYHFSLLLTSFNCVADPVLYCFVSETTHRDLARLRGACLAFLTCSRTGRAREAYPLGAPEASGKSGAQGEEPELLTKLHPAFQTPNSPGSGGFPTGRLA

What was measured:
[1] = variants of: B1; test: cAMP reporter score (Enrich2 score, wild type = 0); higher = more signal; HEK293T, FACS bins
[2] = variants of: B1; test: surface expression score (Enrich2 score, wild type = 0); higher = more signal; HEK293T, FACS bins

| Variant | cAMP reporter score ([1]; pH 5.5) | cAMP reporter score ([1]; pH 6) | cAMP reporter score ([1]; pH 6, modulator: ogerin) | cAMP reporter score ([1]; pH 6.5, modulator: ogerin) | surface expression score [2] |
| --- | --- | --- | --- | --- | --- |
| P37S | -0.606 | -0.297 | -0.767 | -1.02 | -1.59 |
| P37T | -0.944 | -1.04 | -1.34 | -1.42 | -2.14 |
| P37V | -1.14 | -0.548 | -1.93 | -1.2 | -1.49 |
| P37W | -1.03 | -0.764 | -1.25 | -0.968 | -2.23 |
| P37Y | -1.14 | -0.825 | -1.06 | -0.917 | -2.31 |
| P37_A38insG | -0.537 | -0.327 | -0.929 | -0.539 | -2.73 |
| P37_A38insGS | -0.482 | 0.625 | -0.734 | -0.295 | -2.09 |
| P37del | -1.07 | -0.464 | -1.03 | -0.589 | -2.28 |
| A38_N39insGS | -1.09 | -0.626 | -2.42 | -0.483 | -2.74 |
| A38_N39insGSG | -1.3 | 0.599 | -1.59 | -0.084 | -1.51 |
| N39_C40del | -0.91 | -0.55 | -0.724 | -0.109 | -2.25 |
| N39_C40insG | -0.971 | -0.493 | -0.878 | -0.664 | -2.91 |
| N39_L41del | -0.705 | 0.015 | -1.25 | -0.652 | -2.22 |
| C40_S42del | -1.39 | -1.26 | -1.43 | -1.37 | -2.42 |
| C40del | -0.884 | 0.541 | -1.26 | 0.339 | -2.02 |
| L41_S42insG | -1.29 | -0.374 | -2.19 | -1.51 | -2.32 |
| L41_S42insGS | -0.855 | -0.278 | -1.63 | -1.58 | -2.53 |
| L41_S42insGSG | -0.549 | 0.769 | -1.53 | -0.227 | -2.2 |
| S42_L43insG | -0.968 | -1.44 | -1.2 | -1.24 | -2.77 |
| S42_L43insGS | -1.65 | – | -2.23 | -1.45 | -3.02 |
| S42_L43insGSG | -0.343 | -1.33 | -0.988 | -0.638 | -1.5 |
| L43_Y44insG | -0.246 | 0.339 | 0.098 | 0.325 | -2.07 |
| L43_Y44insGSG | -1.45 | -0.661 | -1.71 | -1.05 | -2.27 |
| L43del | -1.42 | -1.03 | -1.93 | -1.67 | -1.89 |
| Y44A | -0.116 | -1.25 | -0.605 | -0.299 | -1.72 |
| Y44C | -1.32 | 0.202 | -0.246 | -0.668 | -1.76 |
| Y44D | -1.57 | -1.07 | -1.73 | -2.74 | -1.79 |
| Y44E | -1.33 | – | -1.91 | -2.25 | -1.96 |
| Y44F | 0.08 | – | 0.892 | -0.222 | -0.647 |
| Y44G | -1.35 | -2.02 | – | -1.21 | -2.71 |

From the GPR68 mutational scans of Howard et al. (2025)
